Hit rate of the full screen: of about 50,000 compounds, about 800 (1.6%) showed an effect of 50% or more. This is one part of the list.
Molecular target: Bcl-2-like protein 10 (Homo sapiens) (UniProt Q9HD36)
Experiment: Phenotype converters, Bcl-B/TR3 peptide binding displacement, primary biochemical FP (AID 1240);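 note: 0% = Bcl-B with tracer peptide and DMSO and 100% = tracer peptide lacking Bcl-B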
Settings: GST-Bcl-B / FITC-TR3 peptide fluorescence polarization; stronger effect = higher value; compound at 3.75 mg/L

Sequence of UniProt Q9HD36 (Q9HD36 whole entry, looked up): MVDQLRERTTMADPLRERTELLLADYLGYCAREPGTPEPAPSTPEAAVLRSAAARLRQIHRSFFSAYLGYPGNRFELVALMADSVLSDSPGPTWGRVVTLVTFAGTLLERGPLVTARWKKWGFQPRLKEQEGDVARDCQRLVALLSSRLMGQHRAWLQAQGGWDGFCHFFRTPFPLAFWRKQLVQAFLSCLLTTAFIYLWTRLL

| Compound | displacement [%] |
| --- | --- |
| CCc1sc(-c2c(C#N)c(N)nc3c2CCCCCC3)cc1[N+](=O)[O-] | 7.7 |
| Cc1ccc(S(=O)(=O)/N=C2/C=C(Cl)C(=O)c3ccccc32)cc1 | 16.7 |
| COc1cc(-c2ccc(NC(=O)/C=C/c3ccco3)c(OC)c2)ccc1NC(=O)/C=C/c1ccco1 | 2.6 |
| COc1ccc(S(=O)(=O)Nc2ccccc2C(N)=O)cc1 | 1.1 |
| CN(C)C(=O)C1(C)CSSC(C)(C(=O)N(C)C)CSSC(C)(C(=O)N(C)C)CSS1 (stereo not drawn) | 15.1 |
| O=C(NCc1ccco1)c1cc2n(n1)C(C(F)(F)F)CC(c1ccc(Br)cc1)N2 (stereo not drawn) | 0.5 |
| COc1ccc(OC)c(NC(=O)CN(CCc2ccccc2)S(=O)(=O)c2ccc(Cl)cc2)c1 | -9.5 |
| Cc1ccc([N+](=O)[O-])cc1-c1ccc(/C=C2/C(=O)NN(c3ccc(F)cc3)C2=O)o1 | -9.8 |
| O=C(c1cc2nc(-c3ccc([N+](=O)[O-])cc3)cc(C(F)(F)F)n2n1)N1CCc2ccccc2C1 | 0.3 |
| Cc1ccc(NC(=O)CSc2nc(C(F)(F)F)cc(=O)[nH]2)cc1 | -8.3 |
| Cc1cc(C)n(C(=O)Nc2ccccc2)n1 | -7.9 |
| CC1=C(C(=O)OCc2ccccc2)C(c2ccccc2[N+](=O)[O-])CC(=O)N1 (stereo not drawn) | -8.1 |
| CC(C)NC(=O)C(=O)NNC(=O)C12CC3CC(CC(C3)C1)C2 | -10.1 |
| CCCCOC(=O)c1c(NC(=O)C2C3CCC(C3)C2C(=O)O)sc2c1CCCC2 (stereo not drawn) | -9.6 |
| O=C(NCC1CCCO1)C1CN(S(=O)(=O)c2ccccc2)CCN1S(=O)(=O)c1ccccc1 (stereo not drawn) | -1.3 |
| Cc1ccnc(NC(=O)C2CCCCC2C(=O)O)c1 (stereo not drawn) | -13.1 |
| CC(Oc1ccc2c3c(c(=O)oc2c1)CCC3)c1ccccc1 (stereo not drawn) | 10.3 |
| O=C(NC(=S)N1CCCCCC1)c1cccnc1 | 1.2 |
| COc1ccc(CN2CCN(C(=O)c3cccs3)CC2)c(OC)c1 | 7.8 |
| O=C(N/N=C/c1ccc(O)c(Br)c1)c1ccccc1 | 1.8 |
| O=[N+]([O-])c1ccc(S(=O)(=O)n2cccn2)cc1 | 1.4 |
| CC(=O)Nc1ccc(NC(=S)NC(=O)c2ccco2)cc1 | 19.4 |

| Compound | displacement [%] |
| --- | --- |
| O=c1[nH]nc(Cc2nc3ccccc3s2)c2ccccc12 | 10 |
| CC(C)C(=O)Nc1ccc(-c2cnc(-c3ccc(NC(=O)C(C)C)cc3)nc2)cc1 | 7.5 |
| Cc1ccc(N(Cc2ccc(C(=O)NCCSc3ccc(Cl)cc3)cc2)S(C)(=O)=O)cc1C | 7.4 |
| COC(=O)c1ccccc1NC(=O)c1cnn2c(C(F)(F)F)cc(-c3ccc(OC)c(OC)c3)nc12 | 11.9 |
| CCCN(CCC)c1ccc(/C=N/NC(=O)Cc2ccccc2)cc1 | -1 |
| NN1C(=O)/C(=C\c2ccc([N+](=O)[O-])cc2)SC1=S | 16.1 |
| O=C(CCNc1ccccc1)c1cccc([N+](=O)[O-])c1 | 1.8 |
| O=C(NCCCNc1ccc([N+](=O)[O-])cc1)c1ccccc1Cl | 11.4 |
| CNc1nc(OCC(F)(F)F)nc(N2CCOCC2)n1 | -5.8 |
| Cc1cc(C)cc(NC(=O)C2CC(=O)N(c3ccc(Cl)cc3)C2)c1 (stereo not drawn) | 4.5 |
| Cc1oc(C(C)(C)C)cc1C(=O)Nc1ccc(NC(=O)C(=O)O)cc1 | -5.5 |
| Cc1ccc(N2C(=O)CC(SCc3ccccc3)C2=O)cc1 (stereo not drawn) | 2.4 |
| COc1ccccc1NC(=O)CSc1nc2ccccc2c(=O)n1-c1ccccc1 | 13.2 |
| Cc1ccc(-c2csc(-c3cc4cc([N+](=O)[O-])ccc4oc3=O)n2)cc1 | -7.9 |
| CCOC(=O)NC(NC(=O)OCC)c1ccc(OC)c(OC)c1 | -8.4 |
| COc1ccc(Br)cc1CN1CCN(Cc2cccn2C)CC1 | 1.7 |
| COc1ccccc1/C=C1\SC(=S)N(CCC(=O)Nc2cccc(C)c2)C1=O | -10.4 |
| COc1ccc(CC/C(=N\O)C2(O)CCCCC2)cc1 | -3.4 |
| COc1ccc(-n2c(CCN3C(=O)c4ccccc4C3=O)nc3ccccc3c2=O)cc1 | -11.1 |
| Cc1c(C(=O)Nc2ccccc2CO)cccc1[N+](=O)[O-] | -1.3 |
| COc1cc2c(cc1OC)-c1nnnn1C(C)(C)C2 | -7.9 |
| COC(=O)CCN1C(=O)/C(=C\c2ccc(F)cc2)SC1=S | 36.9 |

| Compound | displacement [%] |
| --- | --- |
| Cc1ccc2nc(-c3ccc(NC(=O)c4ccccc4-c4ccccc4C(=O)O)cc3)sc2c1 | 7.9 |
| Cc1c(OCc2ccc([N+](=O)[O-])cc2)ccc2c3c(c(=O)oc12)CCCC3 | 0.6 |
| O=C(CNC(=O)c1cccc(F)c1)N=Nc1c(O)n(Cc2ccc3c(c2)OCO3)c2ccccc12 | 2.3 |
| CCNC(=O)CC1S/C(=N\N=C\c2ccco2)NC1=O (stereo not drawn) | 9.2 |
| CCOC(=O)c1c(NC(=O)/C=C/c2cccs2)sc(C(C)=O)c1C | -49.8 |
| Cc1ccc(Nc2cc(=O)[nH]c(=O)[nH]2)cc1 | 3.9 |
| O=C1NC(=Nc2ccc(O)cc2)S/C1=C/c1ccccc1 | 1.1 |
| O=C1C2=C(c3ccccc31)C(c1ccncc1)Nc1ccc3ccccc3c12 (stereo not drawn) | 10.4 |
| O=C(CC1S/C(=N\N=C\c2ccccc2)NC1=O)Nc1ccc(Cl)cc1Cl (stereo not drawn) | 4.7 |
| CCn1c2ccccc2c2cc(CN3CCN(C(=O)c4ccncc4)CC3)ccc21 | 8.5 |
| O=C(/C=C/c1cccc(C(F)(F)F)c1)Nc1cccc2cccnc12 | 15.9 |
| Cc1ccc(N(Cc2ccc(C(=O)N/N=C/c3ccc(OC4CSC4)cc3)cc2)S(C)(=O)=O)cc1C | -2.4 |
| FC(F)(F)c1ccc2nnc(-c3cccc(OCc4ccccc4)c3)n2c1 | 14 |
| O=C(O)COc1ccc(N2C(=O)c3c(Cl)c(Cl)c(Cl)c(Cl)c3C2=O)cc1 | 17.7 |
| CCOc1ccc(C(=O)Nc2cc(Cl)ccc2C(=O)O)cc1 | 10 |
| COc1cc(/C=C2\C(=O)NC(=O)N(c3ccc(Cl)cc3)C2=O)cc(I)c1OC | 10.9 |
| Cc1ccc(C(=O)COc2ccc3c(C)cc(=O)oc3c2)cc1 | 8 |
| Cc1n[nH]c(C)c1Sc1ccccc1N=Cc1ccc(C(C)C)cc1 | 4.4 |
| O=C(COc1ccccc1)Nc1ccc(Br)cn1 | 1.8 |
| CC(NC(=O)CCC(=O)NC(C)C1COc2ccccc2O1)C1COc2ccccc2O1 (stereo not drawn) | 6.9 |
| CCc1ccc(CN2CCN(Cc3cccc(OC)c3OC)CC2)cc1 | -7.7 |
| CN(C)c1ccc(/C=C/C(=O)C2C(=O)CCC2=O)cc1 | -38.6 |

| Compound | displacement [%] |
| --- | --- |
| CS(=O)(=O)N(CC(=O)NCCc1ccccc1)c1cccc(C(F)(F)F)c1 | 7.1 |
| CCOC(=O)C1=C(O)/C(=C/c2cc(OC)c(OC)c(OC)c2)SC1=Nc1ccc(C)cc1 | -5.5 |
| O=c1/c(=C/c2cccc([N+](=O)[O-])c2)sc2nnc(-c3ccccc3)n12 | -3.6 |
| COc1ccc(NC(=O)O/N=C\c2ccc(Br)cc2)cc1 | 9.9 |
| O=C(Nc1ccc2c(c1)OCCO2)C1c2ccccc2Oc2ccccc21 | -6.3 |
| COc1ccc(-n2c(SCc3ccccc3)nc3sc4c(c3c2=O)CCC4)cc1 | -7.2 |
| CCOC(=O)C1=CS/C(=C2/C(=S)C(C)(C)Nc3cc(C)ccc32)S1 | 15 |
| COC(=O)c1cccc(S(=O)(=O)N2CCOCC2)c1 | -16 |
| C=CCc1ccccc1OCCOc1c(Cl)cc(/C=N/n2cnnc2)cc1OCC | 2.2 |
| O=C1NCc2ccccc2C1(c1ccc(F)cc1)c1ccc(F)cc1 | -3.4 |
| Cc1nc(=O)c(-c2ccccc2)c(C)n1-c1ccc(C(=O)O)c(O)c1 | -8.9 |
| O=C(Nc1ccc(S(=O)(=O)N2CCc3ccccc32)cc1)c1ccc(F)cc1 | -13.5 |
| COc1ccc(S(=O)(=O)N2CCN(CCN3C(=O)c4cccc5cccc(c45)C3=O)CC2)cc1[N+](=O)[O-] | 12.9 |
| CCc1c(C)nc(N)nc1N1CCOCC1 | -2.7 |
| O=C(CC(=O)c1ccccc1)Nc1cccnc1 | -0.1 |
| CCc1ccc(NC(=O)CCc2ccccc2)cc1 | 0.2 |
| COc1ccc(C=C2C=C(C(C)(C)C)C(=O)C(C(C)(C)C)=C2)cc1OC | -7.3 |
| CCOC(=O)CCNC(=O)c1ccccc1Cl | 7.7 |
| C=CCn1c(O)c(C2=c3ccccc3=NC2=O)s/c1=N\S(=O)(=O)c1ccc([N+](=O)[O-])cc1 | -1.4 |
| CCOC(=O)C1=C(O)/C(=C/c2cccc(O)c2)SC1=Nc1cccc(Cl)c1 | -5.2 |
| CCOc1cc(/C=C(\C#N)C(=O)NC(C)c2ccccc2)ccc1O (stereo not drawn) | -11.4 |
| CC12CCCCC1C2C(=O)N/N=C\c1ccc(-c2ccc(C(=O)O)cc2)o1 (stereo not drawn) | -5 |

| Compound | displacement [%] |
| --- | --- |
| O=C1c2ccccc2C(=O)N1c1ncn[nH]1 | -9 |
| O=C1C(=O)N(c2ccccn2)C(c2cccc(Br)c2)/C1=C(\O)c1ccc(Cl)cc1 (stereo not drawn) | 18.4 |
| O=C(COc1ccc(Cl)cc1)Nc1ccc(Oc2ccccc2)cc1 | 1.8 |
| NC(=S)N/N=C/c1ccc(-c2ccc(Cl)c(Cl)c2)o1 | -16 |
| O=C(CSc1nc2ccc(N3C(=O)c4ccccc4C3=O)cc2s1)c1ccc(Cl)cc1 | -4.7 |
| Cc1ccc2[nH]c3nc(NN)nnc3c2c1 | 4.9 |
| Cc1ccc(S(=O)(=O)NNc2ccccc2[N+](=O)[O-])cc1 | -9.6 |
| Cc1ccc(S(=O)(=O)N(C)CCCC(=O)Nc2ccc(C)cc2C)cc1 | 13.1 |
| CCOc1ccc2nc(NC3=NCCC(=O)N3)nc(C)c2c1 | 10 |
| CCCc1nc2c(o1)CC(CC(C)SCC)CC2=O (stereo not drawn) | 0.2 |
| COc1ccc(NC(=O)c2cccnc2)cc1OC | -3 |
| N/C(=N\c1nc2ccccc2o1)NC(=O)c1cccc(F)c1 | -27.8 |
| CC(NC(=S)NCc1ccccc1)C1COc2ccccc2O1 (stereo not drawn) | -5.1 |
| COc1cc(C2Nc3ccccc3C(=O)N2c2ccc(C)cc2)ccc1O (stereo not drawn) | 11 |
| CCOc1cc(OCC)cc(C(=O)Nc2cccc3ccccc23)c1 | 14.4 |
| C=CCNC(=O)COc1ccccc1C | -15.2 |
| O=[N+]([O-])c1ccc(N2CCCCC2)c(Cl)c1N1CCCCC1 | -10.4 |
| CN(C)NC1S/C(=C/C(=O)O)C(=O)N1c1ccccc1 (stereo not drawn) | 7.8 |
| CCOc1ccccc1NC(=O)c1ccc2c(c1)C(=O)N(CC(C)C)C2=O | 13.8 |
| CCOc1ccc(CNc2cccc(SC)c2)cc1 | -4.2 |

From PubChem BioAssay AID1240 (Sanford-Burnham Center for Chemical Genomics, 2008)
